# According to the supplement of paper PMC10126150:
# Values marked as one replicate rest on one cluster of the flow cell; about a third of the high ones do not repeat.
# Test system: ATP
# Assay: switch fluorescence ratio, 500 uM ATP over buffer (Cy3 cluster intensity, sum of 5 cycles each) (fold (ratio)); higher = stronger signal-on switching upon ATP binding; sequences stand for … in TCGTCGGCAGCGTCAGATGTGTATAAGAGACAGTTTTTTTTTTTTTTTTTTTTTTTTT…TC
# Details: aptamer strand: ATP DNA aptamer (quencher-CACCTGGGGGAGTATTGCGGAGGAAGG + anchor), 100 nM annealed; ATP concentration: 500 uM; one replicate
# Method in brief: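 Values give the fluorescence ratio for each switch-domain sequence, averaged from per-cluster ratios of summed target-cycle to summed buffer-cycle Cy3 intensity. The Cy3-labelled switching-strand clusters sat on a modified Illumina MiSeq flow-cell, were annealed to 100 nM quencher-labelled ATP aptamer, and were imaged in selection buffer, then after 15 min with 500 uM ATP at 22 °C. Five cycles ran with NaOH stripping and re-annealing between them, and clusters outside 100-1000 RFU were excluded.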
# 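Further: ATP exposure 15 min at 22 °C before imaging.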
row,Sequence,switch fluorescence ratio
1,TAAGGGTATC,1.11
2,CATCTCGACA,1.09
3,GCAGGTTAAT,0.968
4,GTGGTGAGGG,0.991
5,TTAATATTT,1
6,AAGGCAGAGG,0.979
7,TGTATTGTTG,0.985
8,CAAGGTGCGA,1.02
9,CGATATATAT,1.04
10,GCGTACTCAT,1.03
11,CGAATGTGAT,0.966
12,TATCTCGGTT,1.36
13,AGGGAGGT,1
14,CTGTTAGAAT,0.988
15,AGCATGGCGG,1.03
16,GTATGATCAC,1.12
17,GAGTGTGCGA,0.963
18,TTCCGGCAAC,1.14
19,GTTGCGTTGG,0.994
20,CGTGTGCTGC,0.958
21,AGAGGGACAG,0.982
22,CCGGGTGGTG,1.08
23,TACCGATGTA,1.08
24,CCGCTAATTT,5.19
25,CATTATGCAC,1.11

row,Sequence,switch fluorescence ratio
1,ATGTTCAGAA,0.984
2,TGTACGAAAG,1.03
3,AGGAGTGCTA,0.956
4,AACATAGAGA,0.963
5,AATAGTTAGT,0.978
6,CGGCAAACCT,2.53
7,ATTTGGTGAT,0.986
8,CCTCGAGCTA,2.7
9,TTAGGCAAAT,0.985
10,CGCCAGCTCT,1.05
11,CGACGAAACA,1.07
12,ACGAGTGG,0.984
13,ATGCAGCACG,1.01
14,GTGGCCTGTA,0.974
15,GTAGTCCGCA,3.83
16,TCATTCATC,1.03
17,GCTTGACTAT,1.03
18,CTGCAAATGA,1.52
19,GGTGTTAAGT,0.987
20,AGTCACGGAG,0.982
21,CCCCACGTTG,1.56
22,GGTGATCTGG,0.958
23,TTACTTGGCG,1.02
24,TAAGACAGAA,1.05
25,CGGTCTGTGC,1.01

row,Sequence,switch fluorescence ratio
1,GCAATCTATG,1.05
2,ACCACGGCTA,1.03
3,GGTTTACTGG,0.972
4,CGCGATCGGC,1.19
5,ATGGAAACAT,1.08
6,GCGTATAATA,0.972
7,GACGTTCGGG,1.06
8,CGGCATGAG,0.979
9,CTTGGTGAA,0.99
10,CCGGGCTAAA,1.42
11,ACTGATGGA,1
12,TGTATCCGGT,0.981
13,TTCGCGGGCC,1.04
14,TGGGCTAAGG,1.01
15,CAGGGACCCA,0.988
16,GGCTTCAGCT,0.967
17,TCGTATAATG,0.927
18,TTAGATTGTA,1.03
19,TTAGCATGGC,0.992
20,TGCTAGGTCG,1.01
21,GTTAAACATT,1.03
22,CACCCCAGCC,1.31
23,TCGTAGAACT,0.977
24,GTTGCAGC,1.12
25,AGCCGTTGCA,1.05

row,Sequence,switch fluorescence ratio
1,GACGCGGATA,1.58
2,TTATTTGCAA,1.11
3,GACCAAATAT,1.01
4,TACATCTTTA,1.01
5,ACGCAGGCAC,2.19
6,GACCAATCAT,0.998
7,CTGCGGCAT,1.29
8,GCAGGCAAGA,1.04
9,AACAGTGCAA,0.978
10,GCTGCGGGCG,1.04
11,CCTCTGGTAT,3.04
12,ATCGCTTGTA,1.02
13,TCTGTGAAGG,1.01
14,TTCGGGGTA,1.02
15,AAGGGGGCA,0.989
16,GATGGCGTTG,0.99
17,AGGCGACTAA,0.963
18,TCCAAGTATA,1.01
19,CCGCTGTCGC,2.12
20,AACGCCCTTC,1.61
21,ACTCGCGGCT,1.06
22,AGCCAAGCGA,1.02
23,AAACGTTATG,1.03
24,TGCAGATCT,1
25,TGTGCCGATG,0.976
